Counter-ions that a name gives are not always drawn. ± gives the standard deviation of the averaged measurements. In all, about 2,000 compounds were measured (“relative cell viability vs DMSO, compound alone”: median about 1.1, lowest 2% from about 0.29 on). The list shows a part of the results.
test system: TE10; assay: relative cell viability vs DMSO, compound alone (fraction); TE10 is an esophageal squamous carcinoma line; higher = less cytotoxic; details: 2 µM; 48 h
Procedure: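 TE10 ESCC cells (1,000/well, 384-well plates) were treated with Selleck bioactive library compounds at 2 uM alone for 48 h. Viability was read by CellTiter-Glo and expressed relative to DMSO wells. Two technical replicates (A, B).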

Row | SMILES | relative cell viability
1 | CCc1cc2c(s1)-n1c(C)nnc1CN=C2c1ccccc1Cl [Etizolam] | 1.11 ± 0.049
2 | Cc1sc2c(c1C)C(c1ccc(Cl)cc1)=N[C@@H](CC(=O)OC(C)(C)C)c1nnc(C)n1-2 | 0.9008 ± 0.0079
3 | CCC1(C)CC(=O)NC(=O)C1 [Bemegride] | 1.07 ± 0.054
4 | C/C(O)=C(\C#N)C(=O)Nc1cc(Br)ccc1Br | 1.13 ± 0.047
5 | Cc1ccccc1-n1c(Cn2ncc3c(N)ncnc32)nc2cccc(C)c2c1=O | 1.15 ± 0.073
6 | CCN(Cc1ccc(Cl)nc1)/C(=C/[N+](=O)[O-])NC [Nitenpyram] | 1.05 ± 0.031
7 | COc1cc(OC)c(OC)cc1C=O [Asaraldehyde] | 1.08 ± 0.014
8 | Cc1sc2c(c1C)C(c1ccc(Cl)cc1)=NC(CC(N)=O)c1nnc(C)n1-2 (stereo unspecified) | 0.954 ± 0.053
9 | OC(c1ccccc1)(c1ccccc1)C1CCNCC1 [Azacyclonol] | 1.01 ± 0.026
10 | C[C@H]1CNCCc2ccc(Cl)cc21 [Lorcaserin HCl] | 1.1 ± 0.021
11 | C=C1C[C@@H]2[C@H](CC[C@]3(C)C(=O)CC[C@@H]23)[C@@]2(C)C=CC(=O)C=C12 [Exemestane] | 1.04 ± 0.06
12 | Cc1ccc(-n2nccn2)c(C(=O)N2CCN(c3nc4cc(Cl)ccc4o3)CC[C@H]2C)c1 [Suvorexant (MK-4305)] | 1 ± 0.021
13 | CCCN1CCO[C@@H]2c3cc(O)ccc3OC[C@H]21 | 1.02 ± 0.032
14 | CCCCCCCCCCCCCCCC[n+]1ccccc1 [Cetylpyridinium Chloride] | 0.837 ± 0.026
15 | COc1cc(C)[nH]c(=O)c1CNC(=O)c1c(C)n([C@H](C)C2CCOCC2)c2ccccc12 | 1.086 ± 0.0027
16 | CN(C)[C@@H]1C(=O)C(C(N)=O)=C(O)[C@@]2(O)C(=O)C3=C(O)c4c(O)cccc4[C@@](C)(O)[C@H]3[C@H](O)[C@@H]12 [Oxytetracycline (Terramycin)] | 1.05 ± 0.038
17 | CN(C)[C@@H]1C(=O)C(C(N)=O)=C(O)[C@@]2(O)C(=O)C3=C(O)c4c(O)cccc4[C@@](C)(O)[C@H]3[C@H](O)[C@@H]12 [Oxytetracycline Dihydrate] | 1.1191 ± 0.00064
18 | CN1C(=O)CCS(=O)(=O)C1c1ccc(Cl)cc1 (stereo unspecified) [Chlormezanone] | 0.982 ± 0.12
19 | O=P1(N(CCCl)CCCl)NCCCO1 (stereo unspecified) [Cyclophosphamide Monohydrate] | 1.09 ± 0.018
20 | c1ccc2c(c1)sc1ccccc12 [Dibenzothiophene] | 1.06 ± 0.046
21 | CCC1=C[C@H]2CN3CCc4c([nH]c5ccccc45)[C@](C(=O)OC)(C2)[C@H]13 [Catharanthine] | 0.973 ± 0.15
22 | CNCC(O)c1ccc(O)cc1 (stereo unspecified) [Synephrine HCl] | 1.14 ± 0.1
23 | CNCC(O)c1ccc(O)cc1 (stereo unspecified) [Synephrine] | 1.11 ± 0.041
24 | CCOc1ccccc1-n1c(C(C)N2CCN(C(=O)COc3ccc(Cl)cc3)CC2)nc2ccccc2c1=O (stereo unspecified) [Erastin] | 1.09 ± 0.017
25 | CN1[C@@H]2CC[C@H]1C[C@@H](OC(=O)C(CO)c1ccccc1)C2 (stereo partly specified) [Atropine] | 0.913 ± 0.017
26 | C[C@]12CCC(=O)C(O)=C1CC[C@@H]1[C@@H]2CC[C@]2(C)C(=O)CC[C@@H]12 [Formestane] | 1.09 ± 0.058

Row | SMILES | relative cell viability
27 | COc1ccc(C(CN(C)C)C2(O)CCCCC2)cc1 (stereo unspecified) [Venlafaxine] | 1.14 ± 0.054
28 | CCc1c(C(=O)C(N)=O)c2c(OCC(=O)O)cccc2n1Cc1ccccc1 | 1.13 ± 0.088
29 | Cc1sc2c(c1C)C(c1ccc(Cl)cc1)=N[C@@H](CC(=O)Nc1ccc(O)cc1)c1nnc(C)n1-2 | 0.987 ± 0.043
30 | CC(C)NCC(O)c1ccccc1Cl (stereo unspecified) [Clorprenaline HCl] | 1.1 ± 0.08
31 | Cc1cc2c(C(C)C)c(O)c(O)c(C=O)c2c(O)c1-c1c(C)cc2c(C(C)C)c(O)c(O)c(C=O)c2c1O [Gossypol] | 0.835 ± 0.081
32 | Cc1cc2c(C(C)C)c(O)c(O)c(C=O)c2c(O)c1-c1c(C)cc2c(C(C)C)c(O)c(O)c(C=O)c2c1O | 0.587 ± 0.017
33 | CN(C)C(=O)Oc1ccc[n+](C)c1 [Pyridostigmine Bromide] | 1.06 ± 0.06
34 | CN1CCN(c2nc3ccccc3nc2Cl)CC1 | 1.02 ± 0.036
35 | CCN1CC2(OC(=O)c3ccccc3NC(C)=O)CCC(OC)C34C1C(CC23)C1(O)CC(OC)C2CC4C1(O)C2OC (stereo unspecified) [Lappaconite HBr] | 1.03 ± 0.076
36 | CCN(CC)C(=O)c1ccc(C2=CC3(CCNCC3)Oc3cccc(O)c32)cc1 | 1.05 ± 0.05
37 | O=c1[nH]c2ccc(Cl)cc2c(N[C@@H]2CN3CCC2CC3)c1-c1nc2ccccc2[nH]1 | 0.368 ± 0.021
38 | Cn1c(CCCC(=O)O)nc2cc(N(CCCl)CCCl)ccc21 [Bendamustine HCl] | 1.24 ± 0.033
39 | O=C1CC[C@@]2(O)[C@H]3Cc4ccc(O)c5c4[C@@]2(CCN3CC2CC2)[C@H]1O5 [Naltrexone HCl] | 1.11 ± 0.057
40 | CC(C)[C@]12O[C@H]1[C@@H]1O[C@]13[C@]1(O[C@H]1C[C@H]1C4=C(CC[C@@]13C)C(=O)OC4)[C@@H]2O [Triptolide (PG490)] | 0.303 ± 0.0081
41 | CC(C)(C)c1cc(C=C(C#N)C#N)cc(Br)c1O | 0.833 ± 0.25
42 | CN(C)[C@@H]1C(=O)C(C(N)=O)=C(O)[C@@]2(O)C(=O)C3=C(O)c4c(O)cccc4[C@@](C)(O)[C@H]3C[C@@H]12 [Tetracycline HCl] | 1.24 ± 0.087
43 | CC(NC(C)(C)C)C(=O)c1cccc(Cl)c1 (stereo unspecified) [Amfebutamone HCl] | 1.07 ± 0.018
44 | O=[N+]([O-])C=Cc1ccc2c(c1)OCO2 [MNS (3,4-Methylenedioxy-β-nitrostyrene, MDBN)] | 0.742 ± 0.054
45 | CN1[C@@H]2C[C@@H](OC(=O)[C@H](CO)c3ccccc3)C[C@H]1[C@@H]1O[C@@H]12 [Scopolamine HBr] | 1.13 ± 0.047
46 | CN(C)CCc1ccc(O)cc1 [Hordenine] | 0.998 ± 0.056
47 | C/C(=C\c1csc(C)n1)[C@@H]1C[C@@H]2O[C@@H]2CCC[C@H](C)[C@H](O)[C@@H](C)C(=O)C(C)(C)[C@@H](O)CC(=O)O1 [Epothilone A] | 0.642 ± 0.044
48 | COc1ccc(N(C(=O)Oc2c(C)cccc2C)c2ccnc(Nc3ccc(N4CCN(C)CC4)cc3)n2)c(OC)c1 | 1.2 ± 0.074
49 | COC1=C[C@@H]2[C@@H]3Cc4ccc(OC)c(O)c4[C@]2(CCN3C)CC1=O [Sinomenine] | 0.9537 ± 0.0095
50 | N[C@@H]1C[C@H]1c1ccccc1 [Tranylcypromine (2-PCPA) HCl] | 1.04 ± 0.057
51 | Cn1cc(C2=C(c3cn(C4CCN(Cc5ccccn5)CC4)c4ccccc34)C(=O)NC2=O)c2ccccc21 | 1.367 ± 0.0029
